# From the supplement of paper PMC4466236
# Over roughly 33,000 sequences, “E-score (dimensionless, -0.5 to 0.5)” has its median near -0.058; the highest 2% begin near 0.35. This is one part of the list.
# Test system: MvaT
# Experiment: PBM 8-mer E-score (mean of HK and ME arrays) (E-score (dimensionless, -0.5 to 0.5)); higher = stronger relative binding preference; most listed sequences are background and not binding sites
# Description: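 Protein binding microarray: GST-tagged full-length MvaT (P. aeruginosa PAO1) bound to two universal double-stranded 60-mer arrays (ME and HK), each with a constant 25-mer primer and a variable 35-mer region covering all 8-mers. The 8-mer E-score (rank-based, range -0.5 to 0.5, >0.45 = specific binding) is the mean of the two arrays.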
row,Sequence,PBM 8-mer E-score
1,AGTGAGGA,-0.19
2,AAAGCTTG,-0.118
3,GGGTTCTA,-0.21
4,GTTAGCGA,-0.0488
5,AAGGAATC,0.0296
6,ACACCTGA,-0.0987
7,ACAGGCAG,-0.0744
8,ACACGGCA,-0.0734
9,CTCCGCTC,-0.262
10,ATTACCCG,0.0471
11,ATGCTTCC,-0.167
12,TCAGCTCA,-0.27
13,CTCCGGTA,-0.227
14,AAAGTCTG,0.0761
15,CACTGACA,-0.00173
16,CTGTTCAC,-0.0978
17,CATCAATG,-0.108
18,GTTTTTGA,0.138
19,ATGTACTC,0.169
20,ACCCAATG,-0.00445
21,ACGGCATC,-0.231
22,AACTTCGT,0.198
23,CCCACCCG,-0.0901
24,GTTGTGCA,0.0608
25,AAGACGGT,-0.159

row,Sequence,PBM 8-mer E-score
1,CCGGTGGC,-0.232
2,ACCTTATC,0.0334
3,GCCTTCTA,-0.249
4,AGCCTCAA,-0.127
5,AGGCGGAA,-0.193
6,GGGCGGTA,-0.114
7,TCGCACAA,0.175
8,AGGCAACA,0.0465
9,ATACATTG,0.277
10,ATGTAGGC,-0.106
11,CACCTTCG,-0.239
12,GGGTATAC,-0.157
13,CGAATTAG,0.118
14,GCGGACTA,0.00106
15,ATAAGTGG,0.134
16,AACGTGCG,-0.162
17,CTACTTCA,0.024
18,CGCACCAC,-0.205
19,TCGCTGAA,-0.175
20,ACACCAAT,0.133
21,CTATATGA,0.124
22,TCCTGACA,-0.0341
23,ACCAGGAT,-0.14
24,CCTCCGGC,-0.291
25,GCAGATCA,-0.113

row,Sequence,PBM 8-mer E-score
1,CCTCTACG,-0.244
2,GCAATTAC,0.169
3,TAATCAAA,0.244
4,AAACCTAT,0.0993
5,CAATAAGG,0.16
6,ACTGACCA,-0.12
7,ATGGCGGC,-0.0516
8,ATTATAGG,0.304
9,AAACCAAC,0.223
10,CAAGTGCA,0.0265
11,AATTACAC,0.272
12,ATCGTATA,0.115
13,CAGAACTG,0.0437
14,AATATTCT,0.36
15,AGCGGTAT,0.0451
16,CGGACCCA,-0.129
17,CAGCCAAC,-0.0896
18,CTATATAA,0.421
19,AAGGCAGG,-0.103
20,AACGTGAG,-0.0776
21,TATCTGGA,0.0853
22,ACTTCTAC,0.0796
23,CGCCGACA,-0.115
24,CACGCCGC,-0.239
25,AGCGTGTC,-0.134

row,Sequence,PBM 8-mer E-score
1,ACTGTACA,0.169
2,TAAAAAAA,0.321
3,GGTTGAGA,-0.2
4,ATTCCTAG,-0.0112
5,ACGGCTTG,-0.258
6,CGGTGTGC,-0.155
7,CCACGGTC,-0.022
8,ACGACCAT,-0.228
9,CCAACCCA,0.0271
10,ATTCAGGC,-0.0885
11,ACACGGTG,-0.367
12,CGGATCGA,-0.168
13,AAAGGCGA,-0.185
14,GGCGCTAC,-0.31
15,AGAGCGTC,-0.256
16,GGCAGCTA,-0.171
17,GTGCATCA,-0.12
18,AGGTCAAT,0.111
19,CCACTCGG,-0.17
20,TATACGCA,0.215
21,AGTCGCGC,-0.0346
22,CCGATGAC,-0.175
23,CGTCCTGC,-0.237
24,CGATGACC,-0.183
25,ACAGCGAT,-0.0549

row,Sequence,PBM 8-mer E-score
1,ATCTTTAG,0.14
2,CCAGTGCG,-0.176
3,CATGTTGC,0.0214
4,ACCAATTC,0.0147
5,CGGCTCCA,-0.242
6,ATTCCGCC,-0.0889
7,CAAACAGA,0.137
8,ATCTAGGA,-0.167
9,ACAAGCGT,-0.207
10,AATAAGGT,0.224
11,ATGATAAG,0.2
12,CAGCCGAA,-0.0963
13,CACGGGAG,-0.282
14,ACGGGCCT,-0.295
15,CGCCGGTA,-0.169
16,AAACTATT,0.371
17,GATCCGGC,-0.298
18,GTTAAGTA,0.203
19,CTCATATA,0.324
20,CGCATCCC,-0.262
21,AATATCGA,0.28
22,CGTACGTA,-0.092
23,AGCGCAGA,-0.1
24,CGCGAAAC,-0.134
25,ATGGTGAA,0.0344

row,Sequence,PBM 8-mer E-score
1,AAAACTAA,0.285
2,GCATTCCA,-0.209
3,ATGAATCC,0.136
4,CTGATGCA,-0.137
5,AAGCTTAT,0.219
6,AGATGGGC,-0.115
7,TAGTAATA,0.352
8,ACTACCAT,0.116
9,ACTAGGGA,-0.0429
10,CTCGGTAA,-0.0418
11,AGATATCT,0.306
12,AACAACAC,-0.00641
13,AAGAGACT,-0.04
14,CCATTCGG,-0.177
15,AACATTAC,0.234
16,CGAAACCA,-0.0747
17,ACCGATAT,0.298
18,CATCAATA,0.181
19,ACGCCGAA,-0.0701
20,CGAACCCG,-0.123
21,CAATAGGA,-0.107
22,ACAAACGC,-0.0457
23,CTATCCGC,0.0675
24,GACCCAGC,-0.26
25,CTTATTGA,0.22

row,Sequence,PBM 8-mer E-score
1,CAGGTCGG,-0.319
2,ACCACTTA,0.159
3,GCAGGAGA,-0.113
4,CAGCCATC,-0.234
5,AGCGGGCG,-0.323
6,ATACTACG,0.0865
7,AGATTCTA,0.102
8,ACCCGTAT,-0.0154
9,GCGTCTAC,-0.0397
10,AGGCTTAG,-0.104
11,GCAAGGAA,-0.184
12,AATTAAAC,0.382
13,CAAAGTAC,0.154
14,CACGAATA,0.168
15,GGAGCTCA,-0.209
16,ATTGCTAG,0.0803
17,ACAGGCTC,-0.2
18,AGCGTGGA,-0.0231
19,CGGTTCAA,0.0411
20,GGGGTAAC,-0.0939
21,GCCAGGGA,-0.273
22,ATCACAAA,0.139
